# From PubChem BioAssay AID588855 (National Center for Advancing Translational Sciences (NCATS), 2011)
# Hit rate of the full screen: of about 410,000 compounds, about 5,000 (1.2%) were called active. This list was built around the results that the source calls inconclusive (neither active nor inactive); the mix of calls is not that of the screen. The call rests on the fitted dose curve; in most records, active means well fitted inhibition curve with a large enough effect; inconclusive means small, poorly fitted or top-dose-only effect; inactive means no such curve, though single readings can be large or run the other way. Where the call is inconclusive, the potency comes from a doubtful curve fit.
# Assay: qHTS for Inhibitors of TGF-b; further: nearly all actives have a fitted effect of over 65% in size
# Conditions: HepG2 CAGA-GFP TGF-b/SMAD3 reporter, GFP fluorescence, 18 h, TGF-beta stimulated, 500 pg/mL final; series mostly up to 46.1 µM; activity, negative = inhibition: at the top concentration
# Summary of the method: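 Per well, imaged GFP fluorescence of HEPG2 CAGA-GFP cells gives the signal; cells get compound, then TGF-beta (500 pg/mL final), 18 h at 37 degrees C; %Activity versus -TGF-beta and +DMSO controls.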
# On the % scale 0 is the no-effect control and ±100 the full control effect; potency means the concentration at half of the fitted maximal effect; tags describe the fitted curve by direction and shape.
SMILES,Potency,"activity, negative = inhibition"
CN(C)S(=O)(=O)c1cccc(NC(=S)NC(=O)C2CCCCC2)c1,"inconclusive: 12.6 µM [inhibitor, partial curve, poor fit]",
O=C(Nc1cc(Cl)cc(Cl)c1)c1ccc(F)c(S(=O)(=O)NC2CCCC2)c1,"inconclusive: 11.2 µM [inhibitor, partial curve, poor fit]",
N#Cc1nc(-c2ccco2)oc1N1CCN(Cc2ccccc2)CC1,"inconclusive: 14.1 µM [inhibitor, single point]",
Cc1cccc(CN2C(=O)c3ccccc3Sc3ccc(C(=O)N4CCCC4)cc32)c1,"inconclusive: 25.1 µM [inhibitor, single point]",
COc1ccc2nc(SCC(=O)Nc3ccc4c(c3)CCC4)[nH]c2c1,"inconclusive: 12.6 µM [inhibitor, single point]",
CCc1ccc(OCC(=O)NNCC(=O)Nc2ccc(OC)cc2)cc1,,inactive: 8.7%
Cc1cccc2nc(-c3ccccc3)nc(N3CCC(O)(c4ccc(Cl)cc4)CC3)c12,"inconclusive: 7.08 µM [inhibitor, partial curve]",
Cn1c(=O)[nH]c(=O)c2[nH]c(N(Cc3ccccc3)Cc3ccccc3)nc21,active: 11.2 µM,
Oc1ccc(C[C@H]2CN([C@@H](Cc3ccccc3)CN3CCC[C@@H]3CN3C(=S)NC[C@@H]3Cc3ccccc3)C(=S)N2CC2CCCCC2)cc1,active: 12.6 µM,
C[C@H](O)Cc1cn(-c2cc3cc(C#Cc4ccsc4)ccc3oc2=O)nn1,"inconclusive: 0.631 µM [inhibitor, full curve]",
O=S(=O)(Nc1nc(SCc2ccc(Cl)cc2)n[nH]1)c1ccccc1,"inconclusive: 15.8 µM [inhibitor, single point]",
CCCN(CCC)C(=O)CSc1nnc2cc(C)c3cc(C)cc(C)c3n12,,inactive: -32.9%
CCCNC(=O)c1ccc2c(c1)C1C3CCC(C3)C1C(c1ccccc1)N2 (stereo not given),"inconclusive: 0.199 µM [inhibitor, full curve, poor fit]",
Cc1ccc(S(=O)(=O)c2cnc(SCC(=O)Nc3cc(C)cc(C)c3)nc2N)cc1,"inconclusive: 35.5 µM [inhibitor, single point]",
COc1ccc2c(c1)c1c(c(=O)n(-c3ccccc3C)c(=O)n1CC(=O)NCc1ccc(C)cc1)n2C,"inconclusive: 5.01 µM [inhibitor, partial curve, poor fit]",
Clc1cccc(Cc2c(-c3cccc(Cl)c3)nc3ccc(Cl)cn23)c1,active: 10 µM,
c1ccc(COc2ccc(OCCCCN3CCCCC3)cc2)cc1,,inactive: -1.44%
O=C(CSc1nc(CCC2CCCC2)nc2ccccc12)NCc1ccc2c(c1)OCO2,"inconclusive: 35.5 µM [inhibitor, single point]",
CCC(C)c1ccccc1NC(=S)NC(=O)c1ccco1 (stereo not given),,inactive: -16.1%
CCCCc1ccc(-n2nc3cc(C)c(NC(=O)Cc4ccccc4)cc3n2)cc1,,inactive: -2.76%
C=CC[C@@H](Cc1ccc(F)cc1)C(=O)OC[C@H]1CCCN1C(=O)[C@H](CC=C)CC(=O)N[C@H](CO)Cc1ccccc1,"inconclusive: 35.5 µM [inhibitor, single point]",
Cc1ccc2c(c1)nnn2C1CCN(C(=O)Nc2ccccc2C)CC1,,inactive: -0.672%

SMILES,Potency,"activity, negative = inhibition"
CC(=O)Nc1ccc(-c2csc(Nc3ccc(Cl)cn3)n2)cc1,"inconclusive: 0.112 µM [inhibitor, full curve, poor fit]",
FC(F)(F)c1ccccc1/C=N/n1c(COc2ccccc2)n[nH]c1=S,"inconclusive: 35.5 µM [inhibitor, single point]",
COc1ccc(Cc2noc(-c3ccc([N+](=O)[O-])cc3)n2)cc1OC,"inconclusive: 8.91 µM [inhibitor, partial curve, poor fit]",
CC(C(=O)O)C1SC(=O)NC1=O (stereo not given),"inconclusive: 35.5 µM [inhibitor, single point]",
COc1ccc(C2CC(c3ccc4ccccc4c3)=NN2C(=O)CNC2CCCCC2)cc1 (stereo not given),"inconclusive: 35.5 µM [inhibitor, single point]",
COCCNC(=O)C(=O)NCC1OCCN1S(=O)(=O)c1ccc(C)cc1 (stereo not given),"inconclusive: 3.98 µM [inhibitor, full curve]",
COc1ccccc1CNCc1ccc(OC)c2ccccc12,"inconclusive: 25.1 µM [inhibitor, partial curve, poor fit]",
O=S(=O)(NC1CCCCC1Oc1ccccc1)c1ccccc1 (stereo not given),"inconclusive: 2.82 µM [inhibitor, full curve, poor fit]",
CC(C)(C)NC(=O)CSc1nc(-c2ccccc2)c(-c2ccccc2)[nH]1,"inconclusive: 17.8 µM [inhibitor, partial curve, poor fit]",
O=C(Nc1ccccc1)Nc1ccc(Br)c(Cl)c1,"inconclusive: 22.4 µM [inhibitor, single point]",
CC1CCCCN1S(=O)(=O)c1ccc(C(=O)Nc2ccccc2-c2nc3ccccc3s2)cc1 (stereo not given),"inconclusive: 0.1 µM [inhibitor, full curve, poor fit]",
CCCNC(=O)NCCc1c(C)[nH]c2ccccc12,,inactive: 4.29%
O=C(Nc1cccc([N+](=O)[O-])c1)c1ccc2ccccc2c1O,"inconclusive: 7.08 µM [inhibitor, full curve, poor fit]",
CN(C)CCCNc1nc(-c2ccc(Cl)cc2)nc2ccccc12,"inconclusive: 35.5 µM [inhibitor, single point]",
CCN(CC)c1ccc(-c2nn3c(-c4ccccc4OC)nnc3s2)cc1,"inconclusive: 11.2 µM [inhibitor, partial curve, poor fit]",
CCCCN(C)CCNC(=O)c1cc(=O)[nH]c2ccc(S(=O)(=O)N3CCCCCC3)cc12,,inactive: -13.9%
Cc1ccc(S(=O)(=O)n2nnc3ccccc32)c(C)c1C,"inconclusive: 0.708 µM [inhibitor, partial curve, poor fit]",
COc1cccc(Cn2c(-c3nonc3N)nc3ccccc32)c1,,inactive: -23.3%
COCCCNC(=O)c1c(NC(=O)c2nc(S(C)(=O)=O)ncc2Cl)sc2c1CCCC2,"inconclusive: 0.708 µM [inhibitor, full curve]",
O=c1[nH]c(Nc2ccc(F)cc2)cc2ccccc12,"inconclusive: 5.62 µM [inhibitor, partial curve, poor fit]",
Cc1cccc(C(=O)N(CCc2ccccc2)Cc2ccccc2)c1[N+](=O)[O-],"inconclusive: 22.4 µM [inhibitor, single point]",
C=CCNc1nc(NCc2ccc(NC(C)=O)cc2)c2sc(-c3ccccc3)cc2n1,"inconclusive: 31.6 µM [inhibitor, single point]",

SMILES,Potency,"activity, negative = inhibition"
COC(=O)N/N=C/c1cn(CCOc2cccc(OC)c2)c2ccccc12,"inconclusive: 35.5 µM [inhibitor, single point]",
CCOC(=O)c1ccc(N2C(=O)C(O)=C(C(C)=O)C2c2ccc([N+](=O)[O-])cc2)cc1 (stereo not given),,inactive: -2.1%
COCCCNC(=O)C1CCN(c2nc(C)cc(C)n2)CC1,,inactive: -11.1%
COc1ccc(N2CCN(C(=O)c3cn(C4CCCC4)c(=O)c4c3c3ccccc3n4C)CC2)cc1,"inconclusive: 5.62 µM [inhibitor, single point]",
Cc1ccc(NC(=S)NCc2ccc3c(c2)OCO3)cc1,,inactive: -17.2%
COc1ccc(NC(=O)CC(c2ccc(F)cc2)c2ccc(OC(C)C)cc2)cc1 (stereo not given),,inactive: -9.44%
Cc1cc(NC(=O)CCCn2c(C)c3cnn(-c4ccccc4)c(=O)c3c2C)ccc1Br,active: 7.08 µM,
COc1cc(-c2cnc3c(NC=O)cc(-c4ccc(N5CCN(C)CC5)cc4)cn23)cc(OC)c1OC,,inactive: -25.2%
COc1ccc(CNC(=O)C2CCN(c3nc(-c4ccccc4)nc4c3CCC4)CC2)cc1,"inconclusive: 5.01 µM [inhibitor, single point]",
CCCn1c(C)cc(C(=O)CSc2nc3nc(C)cc(C)n3n2)c1C,,inactive: 0.385%
CC(Sc1nnc(-c2ccc(Cl)cc2Cl)n1Cc1ccccc1)C(=O)Nc1nccs1 (stereo not given),"inconclusive: 22.4 µM [inhibitor, single point]",
O=C(N/N=C/c1ccc([N+](=O)[O-])o1)c1ccc(NS(=O)(=O)c2cccs2)cc1,"inconclusive: 28.2 µM [inhibitor, single point]",
COc1ccc(-c2[nH]c(-c3ccc(C)cc3)nc2SCC(=O)NC2CCCC2)cc1,"inconclusive: 17.8 µM [inhibitor, single point]",
COc1ccc(C(C)=O)cc1Cn1c(C)c(C(=O)NCc2cccc(Cl)c2)sc1=O,"inconclusive: 15.8 µM [inhibitor, single point]",
Cc1cc2cc3n(c2nn1)N=C(Cl)CC3,"inconclusive: 15.8 µM [inhibitor, partial curve, poor fit]",
O=C(CSCc1ccccc1)N1CCN(Cc2ccc3c(c2)OCO3)CC1,,inactive: -2.38%
CCOC(=O)c1cc(-c2ccccc2C)nn1CC1CC(c2ccc(OC)cc2)=NO1 (stereo not given),"inconclusive: 1.12 µM [inhibitor, full curve]",
Cc1ccc(C)c(NS(=O)(=O)c2ccc3c4c(cccc24)C(=O)N3)c1,"inconclusive: 22.4 µM [inhibitor, single point]",
CC1Cc2ccccc2N1S(=O)(=O)c1cccc(C(=O)NCc2ccncc2)c1 (stereo not given),"inconclusive: 35.5 µM [inhibitor, single point]",
COc1cccc(Nc2nc(-c3sc(C)nc3C)cs2)c1,"inconclusive: 35.5 µM [inhibitor, single point]",
CNc1nc(Oc2ccc(=O)n(C)n2)nc(N2CCOCC2)n1,"inconclusive: 3.55 µM [inhibitor, single point]",
